Source: PubChem BioAssay AID493208 (National Center for Advancing Translational Sciences (NCATS), 2011)
The campaign covered roughly 44,000 compounds. About 340 (0.77%) were called active. Roughly 5% stayed inconclusive and do not appear here. Calls come from the whole dose curve; as a rule, active = well fitted inhibition curve with a large enough effect; inconclusive = small, poorly fitted or top-dose-only effect; inactive = flat fitted curve, though single readings scatter. Some of the results follow.

experiment: Acumen qHTS Assay for Inhibitors of the mTORC1 Signaling Pathway in MEF (Tsc2-/-, p53-/-) Cells: Sytravon; details: phospho-rpS6 immunofluorescence/PI, 24 h; series mostly up to 38.3 µM; activity change, negative = inhibition: at the top concentration;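 note: plate controls were DMSO for no effect and rapamycin for full effect; nearly all actives have a fitted effect of over 50% in size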
Outline: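 Compounds act on Tsc2-/-, p53-/- fibroblasts carrying an empty vector for 24 h before fixation and dual staining for phospho-S6 and DNA (propidium iodide). Values are percentages of cells above a rapamycin-defined pS6/PI threshold.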

Activity change, negative = inhibition, inactive:
CCc1nnc(SCc2ccc(OC)cc2)c2cc3sc(C)cc3n12 1.95%
Cc1cc(C)c(NC(=O)CCn2c(=O)c3cccn3c3ccccc32)c(C)c1 -4.68%
CCN1CCN(C(c2ccc(SC)cc2)c2c(O)cc(C)n(Cc3ccco3)c2=O)CC1 (stereo not given) -21%
COc1ccccc1NC(=O)C1CCN(S(=O)(=O)c2ccc3[nH]c4c(c3c2)CCCCC4)CC1 -13.4%
O=C(COC(=O)C(Cc1c[nH]c2ccccc12)NC(=O)c1ccc(Cl)cc1)c1ccc(Cl)cc1 (stereo not given) -1.28%
Cc1nn(-c2ccccc2)c2c1cc1c(=O)n(C)c(=O)nc-1n2-c1cccc(Cl)c1 4.47%
Oc1ccc(-c2nc(-c3ccccc3)c(-c3ccc(Br)cc3)[nH]2)cc1 2.85%
COc1ccc(-c2cc(=O)c3cc(OCC(=O)OC(C)C)ccc3o2)cc1 -8.43%
COc1ccc(CCNC(=O)c2oc(=O)c3ccccc3c2-c2ccccc2)cc1OC -2.02%
COc1ccc(CNC(=O)CN2C(=O)COc3ccc(S(=O)(=O)N4CCC(C)CC4)cc32)cc1 -2.09%
Cc1ccc(NC(=O)Cn2c(=O)n(CCCCC(=O)NCCc3ccc(Cl)cc3)c(=O)c3ccccc32)cc1 0.0826%
COC(=O)c1sc(N2C(=O)c3oc4ccccc4c(=O)c3C2c2ccc(O)cc2)nc1C (stereo not given) 3.06%
COc1cc(NC(=O)CCS(=O)(=O)c2nc(-c3ccc4c(c3)OCO4)cc(C(F)(F)F)n2)cc(OC)c1OC 12.5%
CCc1c(C)sc2c1CCN(C(=O)Nc1cc(C)cc(C)c1)C2c1ccccc1 (stereo not given) 3.04%
COCCCNC(=O)CSc1nc2cc3c(cc2c(=O)n1CCCCCC(=O)NCc1ccc2c(c1)OCO2)OCO3 -0.239%
CCCCNC(=O)C1CCC(CNS(=O)(=O)c2ccc(C)cc2)CC1 (stereo not given) -0.0302%
Cc1nc(NC(=O)c2c(-c3ccccc3)c(-c3ccccc3)nn(C)c2=O)sc1C 1.07%
Cc1cccc(NC(=O)c2sc3nc4c(cc3c2N)CN(C(C)C)CC4)c1 -0.49%
CCc1ccc(S(=O)(=O)Nc2ccc3[nH]c(=O)sc3c2)cc1 -0.452%
Cc1cccc(N2CCN(C(=O)CN3C(=O)COc4ccc(S(=O)(=O)N5CCOCC5)cc43)CC2)c1C 0.446%
CCC1CCCCN1C(=O)CSc1nc(-c2ccc(OC)c(OC)c2)cc(C(F)(F)F)n1 (stereo not given) -12.9%
CC1=C(C(=O)OC2CCCCCC2)C(c2cccc(F)c2F)CC(=O)N1 (stereo not given) -17.8%
COc1cc(NC(=O)CCCc2nnc3n(CC(C)C)c(=O)c4sccc4n23)cc(OC)c1 -6.77%
Cc1ccc(Cn2c(SCC(=O)NCc3ccccc3Cl)nc3ccsc3c2=O)cc1 -10.3%
Fc1ccc(Nc2nc(SCc3ccccc3F)nc3ccccc23)cc1 -0.5%
